Test results published in PubChem BioAssay AID1865 (National Center for Advancing Translational Sciences (NCATS), 2009).
Values joined by “and” are separate entries in the source; they are usually repeats but may differ in a detail not shown here. Identical values can stand only once. About 540 (0.19%) of roughly 280,000 compounds were called active. Inconclusive results, whose numbers are uncertain, are shown with a selection of clear calls. Calls come from the whole dose curve; as a rule, active = well fitted activation curve with a large enough effect; inconclusive = small, poorly fitted or top-dose-only effect; inactive = flat fitted curve, though single readings scatter. Where the call is inconclusive, the potency comes from a doubtful curve fit.
Potency is the fitted concentration of half-maximal effect; tags give direction and shape of the fitted curve.

Test: Quantitative High-Throughput Screen for Regulators of Epigenetic Control; note: nearly all actives have a fitted effect of over 60% in size; for GFP activation: % of control where 0% means no effect
Details: murine LDR cells, GFP reporter derepression, 30 h; GFP activation: at 53.9 µM (top of the series)
Outline: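 Derepression of a silenced CMV-GFP reporter in murine LDR cells is scored by enumerating GFP-positive cells with a laser-scanning microplate cytometer after 30 hours of treatment at 37 C.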
In the case of COc1cccc(NC(=O)c2cc(-c3cccnc3)nc3c(Cl)cccc23)c1, the Potency is reported as inconclusive: 15.8 µM [activator, single point]. In the case of CSc1cccc(NC(=O)C2CCN(S(=O)(=O)c3ccc4[nH]c(=O)ccc4c3)CC2)c1, the “GFP activation” value is reported as inactive: 2.78%. In the case of O=C1C(Cl)=C(N2CCN(c3ccccc3[N+](=O)[O-])CC2)C(=O)c2ccccc21, the Potency is reported as inconclusive: 5.62 µM [activator, single point]. With CN1CCc2c(sc3c2C(=O)NC(c2ccc(-c4cccc(Cl)c4)o2)N3)C1 (stereo unspecified) the Potency was inconclusive: 35.5 µM [activator, single point]. For COC(=O)c1cc(=O)n(Cc2cccs2)c(=Nc2ccc(F)cc2)s1, the Potency was inconclusive: 25.1 µM [activator, single point]. In the case of Cc1ccc(/C=C/C2=Cc3c(sc(NC(=O)CSc4n[nH]c(N)n4)c3C#N)C(C)(C)C2)o1, the Potency is reported as inconclusive: 31.6 µM [activator, single point]. In the case of Cc1ccc(/C=C2/C(=O)N(c3ccccc3)C(=S)N2C)o1, the Potency is reported as inconclusive: 25.1 µM [activator, single point]. With CCCC(=O)Nc1nn(CCC)c2nc3ccccc3cc12 the Potency was inconclusive: 11.2 µM [activator, partial curve, poor fit]. In the case of COc1cccc(CN(Cc2ccco2)C(c2ccc(F)cc2)c2nnnn2C(C)(C)C)c1 (stereo unspecified), the “GFP activation” value is reported as inactive: 0%. With COc1c([N+](=O)[O-])c(=O)n(-c2ccccc2)c2ccccc12 the “GFP activation” value was inactive: 0.971%. With Cc1ccc(-c2ccc(/C=C(\C#N)C(=O)Nc3cc(C)nn3-c3ccccc3)o2)cc1 the Potency was inconclusive: 28.2 µM [activator, single point]. For O=C1/C(=N/n2cnnc2)c2ccccc2N1Cc1ccccc1, the “GFP activation” value was inactive: 2.25%. With COc1cccc(C(=O)Nc2ccccc2-c2nc(-c3ccc(C)cc3)no2)c1 the Potency was inconclusive: 35.5 µM [activator, single point]. With COc1ccccc1N/C=C1/Sc2cc(Cl)ccc2NC1=O the Potency was inconclusive: 11.2 µM [activator, partial curve]. With O=C(CC1N=C2c3ccccc3N=C(SCc3cccc(Cl)c3)N2C1=O)NC1CCCCC1 (stereo unspecified) the “GFP activation” value was inactive: -0.235%. For C(=N\Nc1nc(Nc2ccccc2)nc(Nc2ccccc2)n1)/c1cccnc1, the Potency was inconclusive: 35.5 µM [activator, single point]. For Cc1ccc(N(CC(=O)Nc2cccc(N(C)S(C)(=O)=O)c2)S(C)(=O)=O)cc1, the Potency was inconclusive: 35.5 µM [activator, single point]. In the case of O=[N+]([O-])c1cccc(/C=C/c2nc(C=Nc3ccccc3)c(O)o2)c1, the Potency is reported as inconclusive: 28.2 µM [activator, single point]. With CCOc1ccccc1NC(=O)c1ccc2c(c1)CCCN2S(C)(=O)=O the Potency was inconclusive: 5.62 µM [activator, single point]. In the case of O=S(=O)(c1cccs1)N1CN(Cc2ccco2)c2nc3ccccc3nc21, the Potency is reported as inconclusive: 35.5 µM [activator, single point]. With COC(=O)CCSc1cc(NCCOC(C)=O)c([N+](=O)[O-])c2nonc12 the Potency was inconclusive: 25.1 µM [activator, single point]. With Cc1cc(Nc2ccccc2)nc2cc(O)ccc12 the Potency was inconclusive: 35.5 µM [activator, single point]. For CC(Nc1oc(-c2ccc(COc3ccc(Cl)cc3)o2)nc1C#N)c1ccccc1 (stereo unspecified), the Potency was inconclusive: 35.5 µM [activator, single point]. With O=c1[nH]c2ccc([N+](=O)[O-])cc2nc1/C=C(\O)c1ccccc1 the Potency was active: 6.31 µM. With CC(C)CN1C(=O)CC(Sc2ccccc2C(=O)O)C1=O (stereo unspecified) the “GFP activation” value was inactive: 1.04%. With N#C/C(=C/c1cccs1)c1nc2ccccc2[nH]1 the Potency was inconclusive: 28.2 µM [activator, single point]. For CCOc1ccccc1-c1cc(-c2ccccc2)nc2c1c(=O)n(C)c(=O)n2C, the “GFP activation” value was inactive: -0.241%. With Cc1ccccc1CN1C(=O)c2ccccc2S(=O)c2ccc(C(=O)NCc3ccc4c(c3)OCO4)cc21 (stereo unspecified) the “GFP activation” value was inactive: 1.06%. In the case of COc1cccc(CNC(=O)CCC(=O)N2CC(C)Sc3ccccc32)c1 (stereo unspecified), the Potency is reported as inconclusive: 6.31 µM [activator, partial curve, poor fit]. For CCc1ccccc1NC(=O)CSc1ccsc1[N+](=O)[O-], the Potency was inconclusive: 35.5 µM [activator, single point]. With C/C(=N\Nc1nc2c(s1)CCCC2)c1ccc(Cl)cc1 the Potency was inconclusive: 31.6 µM [activator, single point]. In the case of Cc1ccc(C(=O)CC2(O)C(=O)N(Cc3ccccc3)c3ccccc32)c(C)c1 (stereo unspecified), the Potency is reported as inconclusive: 35.5 µM [activator, single point]. In the case of COc1ccc(Cl)cc1NC(=O)Cn1cnc2sc(C)c(S(=O)(=O)N3CCN(c4ccccc4OC)CC3)c2c1=O, the “GFP activation” value is reported as inactive: 1.64%. For CS(=O)(=O)N1CCc2cc(C(=O)Nc3ccc(S(N)(=O)=O)cc3)ccc21, the Potency was inconclusive: 6.31 µM [activator, single point]. For Cc1ccc(C)c(NC(=O)Cn2c(=O)n(Cc3ccc4c(c3)OCO4)c(=O)c3ccccc32)c1, the Potency was inconclusive: 35.5 µM [activator, single point]. For C=CCN1C(=O)/C(=C2/Sc3ccc(OC)cc3N2C)SC1=Nc1ccccc1, the Potency was inconclusive: 3.98 µM [activator, full curve]. For O=c1[nH]c(/C=C/c2cccc3ccccc23)nc2ccccc12, the Potency was inconclusive: 35.5 µM [activator, single point]. In the case of COCCNC(=S)N/N=C(\C)c1ccccc1OC, the Potency is reported as inconclusive: 25.1 µM [activator, single point]. For CCCCCCN1C=CC(=C/C=C(\C#N)C(=O)OCC)C=C1, the Potency was active: 10 µM. In the case of COc1ccc(C(=O)N=c2c(C#N)cc3c(=O)n4cccc(C)c4nc3n2Cc2ccco2)cc1, the “GFP activation” value is reported as inactive: -0.25%. With Cc1ccn2c(=O)c(NC(=O)c3cccc([N+](=O)[O-])c3C)c(C)nc2c1 the Potency was inconclusive: 6.31 µM [activator, single point]. With Cc1ccc(/C=c2\s/c(=C(/C#N)C(=O)N3CCCC3)n(Cc3ccco3)c2=O)s1 the Potency was inconclusive: 31.6 µM [activator, single point]. With O=c1[nH]c(N/N=C/c2cc3c(cc2[N+](=O)[O-])OCO3)nc2ccccc12 the Potency was inconclusive: 12.6 µM [activator, partial curve]. For C/C(=N\NC(=O)c1ccccc1F)c1ccc2c(c1)Nc1ccccc1S2, the Potency was active: 11.2 µM. In the case of CCOc1ccc(NC(=O)Cn2cc(C(=O)c3ccccc3)c(=O)c3cc(OC)ccc32)cc1, the Potency is reported as inconclusive: 35.5 µM [activator, single point]. In the case of CCn1cnc2cc(NCc3ccc(N(C)C)cc3)ccc21, the Potency is reported as inconclusive: 31.6 µM [activator, single point] and inconclusive: 35.5 µM [activator, single point]. In the case of COCCNC(=S)N/N=C1\CC(C)CC(C)(C)C1 (stereo unspecified), the Potency is reported as inconclusive: 35.5 µM [activator, single point]. With Cc1cccc(Cc2c(C)nc3c(C(=O)N4CCN(Cc5ccc6c(c5)OCO6)CC4)cnn3c2C)c1 the Potency was inconclusive: 14.1 µM [activator, single point]. In the case of O=c1c2cc3c(=O)n(-c4ccccc4O)c(=O)c3cc2c(=O)n1-c1ccccc1O, the Potency is reported as inconclusive: 20 µM [activator, single point]. In the case of CCCC(=O)Nc1nnc(S(=O)(=O)N(C)c2ccccc2)s1, the Potency is reported as inconclusive: 17.8 µM [activator, single point]. With COc1ccc(COn2c(=O)c(C)[n+]([O-])c3ccccc32)cc1OC the Potency was inconclusive: 31.6 µM [activator, single point]. For O=C(NC1CC(=O)N(c2ccc(F)cc2)C1)C(c1ccccc1)c1ccccc1 (stereo unspecified), the “GFP activation” value was inactive: 5.61%. With Oc1c(C(Nc2ccccn2)c2ccccn2)ccc2cccnc12 (stereo unspecified) the Potency was active: 3.55 µM. In the case of CN(C)CCCN(Cc1ccccc1)C(=S)Nc1ccc(SC(F)F)cc1, the “GFP activation” value is reported as inactive: -0.306%. In the case of O=C1C=CC(=O)C(C2=C3C(=O)N(CCc4ccccc4)CC(=O)N3CCC2)=C1, the “GFP activation” value is reported as inactive: -0.0112%. In the case of C/C(=N\O)c1ccc2c3c([nH]c2c1)CCCC3, the “GFP activation” value is reported as inactive: 0%. For Cc1ccc(S(=O)(=O)N2CCC(c3nnc(-c4cccc(C)c4)o3)CC2)cc1, the Potency was inconclusive: 35.5 µM [activator, single point]. In the case of CCOC(=O)c1c(-c2ccc(OC)cc2)csc1/N=C/C1C(=O)CCCC1=O, the Potency is reported as inconclusive: 22.4 µM [activator, single point]. With CC(C)CN(CC(C)C)c1nnc(NC(=O)Nc2cccc(C(F)(F)F)c2)s1 the “GFP activation” value was inactive: -5.97%. With O=C(CCS(=O)(=O)c1nc(-c2ccc3c(c2)OCO3)cc(C(F)(F)F)n1)Nc1ccccc1C(F)(F)F the Potency was inconclusive: 35.5 µM [activator, single point]. With O=C(c1nnsc1S(=O)(=O)c1ccc(Cl)cc1)N1CCOCC1 the Potency was inconclusive: 3.55 µM [activator, single point]. With CC1=C(C(=O)Nc2cccnc2)C(c2cccc(O)c2)n2nc(SCc3ccccc3)nc2N1 (stereo unspecified) the “GFP activation” value was inactive: -1.08%. With CCOC(=O)C1(Cc2cccc(F)c2)CCN(Cc2nc(CC)[nH]c2C)CC1 the Potency was inconclusive: 15.8 µM [activator, single point]. With COc1coc(C(O)C[N+](=O)[O-])cc1=O (stereo unspecified) the Potency was inconclusive: 22.4 µM [activator, single point]. For Cc1cccc(C(=O)NCC(c2ccc3c(c2)OCO3)N2CCN(c3ccccc3F)CC2)c1 (stereo unspecified), the “GFP activation” value was inactive: 0%. In the case of CCc1ccc(Oc2nc3c(C)cccn3c(=O)c2/C=C(\C#N)c2nc3ccccc3[nH]2)cc1, the Potency is reported as active: 11.2 µM.
